Measured values taken from article PMC3877284.
No constants are given. Whether binding was seen depends on the method and setting. In cells and extracts the contact can be indirect. Some results given as binding are weak or reduced against the parent protein; the word gives no strength. Each block holds one binder with its values, some of them ahead of it.

Amino acid sequences for entries named in this document (tags omitted).
UniProt P35222: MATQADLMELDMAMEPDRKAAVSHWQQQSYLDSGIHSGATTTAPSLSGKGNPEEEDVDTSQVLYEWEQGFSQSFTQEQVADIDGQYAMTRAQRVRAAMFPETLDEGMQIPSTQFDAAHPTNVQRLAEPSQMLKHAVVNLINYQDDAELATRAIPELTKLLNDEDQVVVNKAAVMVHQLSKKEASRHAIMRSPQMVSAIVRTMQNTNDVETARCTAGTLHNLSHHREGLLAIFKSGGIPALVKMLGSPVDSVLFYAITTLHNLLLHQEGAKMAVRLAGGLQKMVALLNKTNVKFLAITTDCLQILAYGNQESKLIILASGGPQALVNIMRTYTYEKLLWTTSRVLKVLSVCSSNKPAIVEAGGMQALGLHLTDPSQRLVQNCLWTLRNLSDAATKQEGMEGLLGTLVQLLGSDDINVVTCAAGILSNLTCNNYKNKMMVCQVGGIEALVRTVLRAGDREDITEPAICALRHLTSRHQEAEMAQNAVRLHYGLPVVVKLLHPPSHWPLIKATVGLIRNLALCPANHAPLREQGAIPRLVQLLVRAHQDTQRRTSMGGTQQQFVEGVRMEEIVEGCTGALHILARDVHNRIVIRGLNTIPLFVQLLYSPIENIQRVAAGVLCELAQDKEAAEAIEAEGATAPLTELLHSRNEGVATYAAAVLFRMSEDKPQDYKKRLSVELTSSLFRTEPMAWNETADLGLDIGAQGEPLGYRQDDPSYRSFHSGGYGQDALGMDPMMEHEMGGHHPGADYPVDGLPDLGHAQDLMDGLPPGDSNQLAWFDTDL

Assays:
[1] = biological target: T1, γ-catenin (human (endogenous in MCF10A, MCF7, HaCaT, Hep3B, HeLa)) (UniProt P14923); assay: co-IP; IP with an antibody against γ-catenin; 750 µg total protein
T1 sequence: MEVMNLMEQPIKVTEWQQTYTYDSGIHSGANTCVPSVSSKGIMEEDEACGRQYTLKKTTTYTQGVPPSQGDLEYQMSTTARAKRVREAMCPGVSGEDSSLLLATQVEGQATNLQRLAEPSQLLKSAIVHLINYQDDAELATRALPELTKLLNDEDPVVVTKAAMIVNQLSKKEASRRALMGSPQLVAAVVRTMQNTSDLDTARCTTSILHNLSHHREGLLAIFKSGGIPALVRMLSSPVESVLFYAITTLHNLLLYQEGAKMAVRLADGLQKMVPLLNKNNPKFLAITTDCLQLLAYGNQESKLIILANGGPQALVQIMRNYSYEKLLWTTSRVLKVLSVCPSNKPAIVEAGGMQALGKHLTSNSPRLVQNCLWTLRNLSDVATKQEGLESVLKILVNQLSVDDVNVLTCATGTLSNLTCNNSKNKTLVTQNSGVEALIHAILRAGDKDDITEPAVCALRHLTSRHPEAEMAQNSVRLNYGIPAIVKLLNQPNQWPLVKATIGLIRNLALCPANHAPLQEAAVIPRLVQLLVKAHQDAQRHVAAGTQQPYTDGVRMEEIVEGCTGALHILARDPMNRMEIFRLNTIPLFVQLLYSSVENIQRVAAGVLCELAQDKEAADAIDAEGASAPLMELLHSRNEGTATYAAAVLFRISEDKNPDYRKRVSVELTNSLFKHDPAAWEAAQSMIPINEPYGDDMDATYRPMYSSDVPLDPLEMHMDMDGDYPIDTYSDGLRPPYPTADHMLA

β-catenin-GST = β-catenin-GST (UniProt P35222); assay: pull-down; indirect GST pulldown: 5 µg GST-tagged protein on glutathione sepharose beads with MCF10A lysate (1.2-1.25 mg total protein; also lysates of flotillin-1 or flotillin-2 knockdown MCF10A cells), over night at 4°C; 10 mM Tris-HCl pH 8.0, 150 mM NaCl, 5 mM EDTA, 0.5% Triton X-100, 60 mM N-octylglucoside; only the target purified
[2] = biological target: T2, flotillin-2 (human (endogenous in MCF10A, MCF7, HaCaT, Hep3B, HeLa)) (UniProt Q14254); assay: co-IP; IP with polyclonal flotillin-1 or flotillin-2 antibody on Dynabeads protein A from lysate of MCF10A cells grown confluent for 5 days; 750 µg total protein; 10 mM Tris-HCl pH 8.0, 150 mM NaCl, 5 mM EDTA, 0.5% Triton X-100, 60 mM N-octylglucoside
T2 sequence: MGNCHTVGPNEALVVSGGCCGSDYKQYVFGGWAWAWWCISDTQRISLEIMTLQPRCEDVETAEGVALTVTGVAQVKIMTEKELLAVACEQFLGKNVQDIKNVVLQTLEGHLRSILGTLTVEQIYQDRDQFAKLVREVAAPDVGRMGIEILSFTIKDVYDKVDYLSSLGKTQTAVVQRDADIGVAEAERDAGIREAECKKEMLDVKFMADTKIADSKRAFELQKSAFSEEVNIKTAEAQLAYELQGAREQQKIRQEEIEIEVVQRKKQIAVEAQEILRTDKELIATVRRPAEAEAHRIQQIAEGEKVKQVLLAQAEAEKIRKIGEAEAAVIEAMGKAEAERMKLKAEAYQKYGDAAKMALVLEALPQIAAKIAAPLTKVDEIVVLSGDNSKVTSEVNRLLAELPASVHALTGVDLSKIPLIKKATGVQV

binding [1]: binds
binding (β-catenin-GST): binds
B1: flotillin-2 (protein, UniProt Q14254 1-428)
chain: T2 sequence

binding [2]: binds
B2: flotillin-1 (protein, UniProt O75955 1-427)
chain: MFFTCGPNEAMVVSGFCRSPPVMVAGGRVFVLPCIQQIQRISLNTLTLNVKSEKVYTRHGVPISVTGIAQVKIQGQNKEMLAAACQMFLGKTEAEIAHIALETLEGHQRAIMAHMTVEEIYKDRQKFSEQVFKVASSDLVNMGISVVSYTLKDIHDDQDYLHSLGKARTAQVQKDARIGEAEAKRDAGIREAKAKQEKVSAQYLSEIEMAKAQRDYELKKAAYDIEVNTRRAQADLAYQLQVAKTKQQIEEQRVQVQVVERAQQVAVQEQEIARREKELEARVRKPAEAERYKLERLAEAEKSQLIMQAEAEAASVRMRGEAEAFAIGARARAEAEQMAKKAEAFQLYQEAAQLDMLLEKLPQVAEEISGPLTSANKITLVSSGSGTMGAAKVTGEVLDILTRLPESVERLTGVSISQVNHKPLRTA
